From PMC4336329 (PLoS ONE, 2015)
Screen size: about 310,000 compounds; about 2,200 (0.71%) showed an effect of 50% or more. The effect is printed as a negative number. The list shows a part of the results.

Biological target: human ether-à-go-go-related gene (hERG) potassium channel (human, UniProt Q12809)
Test: primary screen, population patch clamp on CHO cells stably expressing hERG

Sequence of human ether-à-go-go-related gene (hERG) potassium channel (Q12809 whole entry, looked up): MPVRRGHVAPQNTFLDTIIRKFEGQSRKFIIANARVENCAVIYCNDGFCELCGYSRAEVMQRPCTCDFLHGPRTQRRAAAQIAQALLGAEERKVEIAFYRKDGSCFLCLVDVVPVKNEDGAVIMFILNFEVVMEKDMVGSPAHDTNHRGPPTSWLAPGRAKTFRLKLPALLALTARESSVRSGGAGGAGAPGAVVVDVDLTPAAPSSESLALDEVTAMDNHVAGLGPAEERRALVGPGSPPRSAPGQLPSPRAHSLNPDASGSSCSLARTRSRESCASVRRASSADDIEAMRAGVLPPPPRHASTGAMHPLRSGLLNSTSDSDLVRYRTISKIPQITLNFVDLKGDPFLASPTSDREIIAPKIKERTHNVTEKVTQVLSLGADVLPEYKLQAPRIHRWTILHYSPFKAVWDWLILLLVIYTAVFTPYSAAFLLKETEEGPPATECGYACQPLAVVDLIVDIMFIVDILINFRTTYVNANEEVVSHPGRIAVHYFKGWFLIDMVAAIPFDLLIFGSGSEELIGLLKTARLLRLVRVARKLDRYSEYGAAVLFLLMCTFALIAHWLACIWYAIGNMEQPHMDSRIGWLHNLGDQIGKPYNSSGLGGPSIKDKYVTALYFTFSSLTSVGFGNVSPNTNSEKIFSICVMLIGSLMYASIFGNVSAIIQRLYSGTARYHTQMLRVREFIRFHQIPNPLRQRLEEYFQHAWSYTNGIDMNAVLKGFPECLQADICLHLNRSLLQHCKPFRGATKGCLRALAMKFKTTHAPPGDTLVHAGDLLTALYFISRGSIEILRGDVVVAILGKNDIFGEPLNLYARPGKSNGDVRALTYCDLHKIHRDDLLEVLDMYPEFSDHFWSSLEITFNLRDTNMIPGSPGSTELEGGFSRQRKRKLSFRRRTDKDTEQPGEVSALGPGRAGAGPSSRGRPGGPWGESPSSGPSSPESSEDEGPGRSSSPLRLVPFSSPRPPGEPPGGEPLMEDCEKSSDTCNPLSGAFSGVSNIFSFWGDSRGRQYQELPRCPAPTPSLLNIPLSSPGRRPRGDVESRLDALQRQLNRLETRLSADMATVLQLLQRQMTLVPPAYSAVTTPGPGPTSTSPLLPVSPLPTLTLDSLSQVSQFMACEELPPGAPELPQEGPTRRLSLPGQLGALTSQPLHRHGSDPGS

Row | Structure (SMILES) | hERG current change (%, negative = inhibition) at 1uM
1 | COc1ccc(SC[C@H](Cc2ccccc2)N2CC[C@@H](C)CCC2=O)cc1 | 7.28%
2 | CCC(=O)Nc1ccc(F)c(Cl)c1 | 15%
3 | Cc1nc2ccc(S(=O)(=O)N(C)CC(=O)N3CCc4ccccc4C3)cc2s1 | -6.59%
4 | CCCCC(CC)CNC(=O)C(=O)c1ccccc1NC(C)=O (stereo not shown) | 10.9%
5 | Cc1cc2cc(CCNC(=O)CCCc3ccccc3)c(=O)[nH]c2cc1C | 19.1%
6 | COc1ccc(CNC(=O)CN(c2cc(C)cc(C)c2)S(=O)(=O)c2c(C)[nH]c(=O)[nH]c2=O)cc1 | 19.2%
7 | CN1C(=O)S/C(=C/c2cccnc2)C1=O | -5.79%
8 | O=C(Nc1ccc(C(=O)N2CCOCC2)cc1)Nc1ccc(Cl)cc1Cl | 2.33%
9 | CC(=O)c1cccc(NC(=O)C(C)OC(=O)CCC2CCCCC2)c1 (stereo not shown) | 8.04%
10 | CCCOC(=O)c1c(NC(=O)c2cnn3c2NC(c2ccccc2)CC3C(F)(F)F)sc2c1CCCC2 (stereo not shown) | 0.31%
11 | O=C(CCc1ccccc1)Nc1ccc(NC(=O)C2CC2)nc1 | -0.478%
12 | CCCC(=O)Nc1ccccc1-c1nnc(SCC)[nH]c1=O | 13%
13 | N#CCc1nc(-c2cc3ccccc3oc2=O)cs1 | 6.48%
14 | Cc1ccc(NC(=O)NC2CCCCCCC2)c(C)c1 | 9.81%
15 | CCn1ccnc1CNC(=O)C1CCC(=O)N(Cc2cccc(C(F)(F)F)c2)C1 (stereo not shown) | 1.22%
16 | O=c1oc(-c2cccs2)nc2scc(-c3cccs3)c12 | 9.84%
17 | NC(=O)Nc1ccc(C(=O)OCC(=O)Nc2cccc(S(=O)(=O)NC3=NCCCCC3)c2)cc1 | 5.45%
18 | O=[N+]([O-])c1ccc(O)c(CN2CCCCCC2)c1 | 18%
19 | COc1ccc(N2CCN(CCCN)CC2)cc1 | 9.68%
20 | COc1ccc(-c2nsc3c(N4CCCC4)ncnc23)cc1 | 4.38%
21 | Cc1noc(C)c1COc1ccc(CC(=O)NCCc2ccccn2)cc1 | 2.87%
22 | Cn1c(=O)c2c(Nc3ccc(F)cc3)cc(=O)n(-c3ccccc3)c2n(C)c1=O | 13.5%

Row | Structure (SMILES) | hERG current change (%, negative = inhibition) at 1uM
23 | COc1ccc(C2=NN(c3ccccc3)C(c3ccc(OC)c(OC)c3)C2)cc1 (stereo not shown) | 15.1%
24 | COc1ccc(Cl)cc1NC(=O)c1cc(-c2cc(C)ccc2O)n[nH]1 | 12.1%
25 | O=C(c1cc2c(=O)n3ccccc3nc2s1)N1CCOCC1 | -4.72%
26 | O=C(CNC(=O)c1cn2ccccc2n1)Nc1ccc(F)c(F)c1 | 11.8%
27 | O=C(Nc1cccc(O)c1)c1c(O)c2ccccc2[nH]c1=O | 10.4%
28 | COCCCNC(=O)Cn1nnc(-c2ccc(NC(=O)c3ccc(F)cc3)cc2)n1 | 14.4%
29 | N#Cc1c(NC(=O)CSc2ncnc3c2cnn3-c2ccccc2Cl)sc2c1CCCC2 | -0.537%
30 | OCc1cc(-c2ccccn2)no1 | 8.87%
31 | O=C(NCCN1CCOCC1)c1sc2ccccc2c1Cl | 6.39%
32 | O=C(c1ccc(N2CCCS2(=O)=O)cc1)N1CCN(c2ccccc2)CC1 | 6.36%
33 | O=C(CN1CCN(c2ccccn2)CC1)Nc1cccc(F)c1 | 8.15%
34 | c1csc(-c2nc3ccccc3[nH]2)c1 | 15.8%
35 | COc1ccc(C2CC3(CC(C)(C)NC(=O)N3)Oc3cc(O)ccc32)cc1 (stereo not shown) | -6.94%
36 | COc1cc2c(cc1OC)C(c1cccc([N+](=O)[O-])c1)N(C(=O)CCC(=O)O)CC2 (stereo not shown) | 9.28%
37 | CSc1ncccc1C(=O)OCC(=O)c1[nH]c(C)c(C(C)=O)c1C | 9.01%
38 | Cc1ccc(S(=O)(=O)N2CCOCC2)cc1NC(=O)CSCc1c(C)noc1C | -1.11%
39 | O=C(COC(=O)c1cc([N+](=O)[O-])ccc1N1CCOCC1)Nc1ncc(Cl)cc1Cl | -8.33%
40 | CN(C)S(=O)(=O)c1ccc(Cl)c(C(=O)NNC(=O)Cc2nc3ccccc3n2C)c1 | 8.52%
41 | O=C(Nc1ccc(Cl)cc1)c1ccc(-n2cncn2)c([N+](=O)[O-])c1 | -9.4%
42 | CCOC(=O)c1c(-n2cccc2)sc2c1CCCC2=O | 5.16%
43 | COc1c(Cl)ccc(Cl)c1C(=O)NC(=O)Nc1nc(C)cc(C)n1 | 5.87%
44 | O=C(NCc1ccco1)c1cccnc1Cl | 3.31%

Row | Structure (SMILES) | hERG current change (%, negative = inhibition) at 1uM
45 | Cc1ccc(NC(=S)N(CCCN2CCC(C)CC2)Cc2ccco2)cc1C | -25.5%
46 | CC(c1ccco1)N(C(=O)C12CC3CC(CC(C)(C3)C1)C2)c1ccccn1 (stereo not shown) | 8.34%
47 | Oc1ccc(/C=N/n2c(-c3ccco3)csc2=Nc2cccnc2)c(O)c1 | 7.69%
48 | CCOC(=O)Nc1ccc([N+](=O)[O-])cc1C | 12.3%
49 | CCCn1c(SCC(=O)Nc2cccc(F)c2)nc(O)cc1=O | 9.12%
50 | CCCn1nc(NC(=O)CC)c2cc3cccc(C)c3nc21 | 11.7%
51 | COc1ccc(NC(=O)CN2CCN(c3c(C)cc(C)cc3C)CC2)cc1 | 12.7%
52 | Cc1ccc(/C=C2/Sc3ccc(C(=O)NCCN4CCOCC4)cc3NC2=O)cc1 | -13.2%
53 | COc1ccc(NC(=O)NNC(=O)CCC(=O)Nc2ccccc2Cl)cc1 | 9.56%
54 | CC(=O)Nc1cccc(C(=O)Nc2nc(C)cs2)c1 | 1.1%
55 | c1ccc(-n2c(SCC3CCCCO3)nnc2-c2cnccn2)cc1 (stereo not shown) | 13.3%
56 | O=C(Nc1ccc(F)cc1)OCCN1CCN(Cc2ccccc2)CCC1=O | -0.713%
57 | CC(C)(C)SCCNC(=O)CN(c1ccccc1)S(=O)(=O)c1ccccc1 | 6.08%
58 | COc1ccc(/C=N/NC(=O)CNC(=O)/C=C/c2ccco2)cc1OC | 4.97%
59 | CCOC(=O)c1cc(C#N)c(SCC(=O)c2cc(C#N)c(SC)nc2C)[nH]c1=O | 0.0865%
60 | Cc1cc(NC(=O)c2ccc3c(c2)OCCO3)no1 | 10.2%
61 | COc1cc(/C=N/N2C(=O)c3ccccc3NC2(C)c2cccc([N+](=O)[O-])c2)cc(Br)c1O (stereo not shown) | 2.17%
62 | CC1CCCN(C(=O)C(Cc2ccccc2)n2cccc2)C1 (stereo not shown) | 10.8%
63 | CCc1ccc(N(CC(=O)Nc2ccc(NC(C)=O)cc2)S(=O)(=O)c2ccccc2)cc1 | 8.39%
64 | COc1cc(/C=C(\C#N)c2nc3ccccc3[nH]2)cc(Br)c1OCc1ccccc1 | 11.2%
65 | CCOc1cc(C#N)c(NC(=O)c2ccnn2C)cc1OCC | 8.07%
66 | Cc1ccc(S(=O)(=O)NC2=NCN(CCOC(=O)c3ccc([N+](=O)[O-])cc3)CN2)cc1 | 8.29%

Row | Structure (SMILES) | hERG current change (%, negative = inhibition) at 1uM
67 | COc1ccc(Cl)cc1NC(=O)CN1c2ccccc2CC1C (stereo not shown) | 18.5%
68 | COc1c(C)cc(C(=O)C2CCCN(Cc3c(C)n(C)n(-c4ccccc4)c3=O)C2)cc1C (stereo not shown) | 1.73%
69 | Cc1nc(-c2cccnc2)sc1C(N)=O | 9.5%
70 | CCOc1cc(CNC2CCCC2)c(Cl)cc1OCC(=O)Nc1ccccc1 | 0.521%
71 | CN(C(=O)c1cccc(NC(=O)Cc2ccccc2)c1)c1ccccc1 | 8.74%
72 | Cn1c(=O)c2c(ncn2CC(O)CNc2ccc(Br)cc2)n(C)c1=O (stereo not shown) | -7.26%
73 | CCOc1ccc(N2CC(C(=O)Nc3ccccc3F)CC2=O)cc1 (stereo not shown) | 9.75%
74 | O=C(CSC1=NCCS1)Nc1ccccc1F | 8.83%
75 | C=CCOC(=O)C1=C(C)NC(C)=C(C(=O)OCC=C)C1c1cccs1 | 2.58%
76 | O=C(Nc1ccc(N2CCOCC2)cc1)c1cn2ccccc2n1 | 6.95%
77 | CCOP(=O)(OCC)c1nc(-c2ccccc2Cl)oc1N1CCOCC1 | 17.2%
78 | COc1ccccc1C(C)Nc1ccc(S(=O)(=O)N2CCN(C)CC2)cc1[N+](=O)[O-] (stereo not shown) | 13.5%
79 | CCNc1nc(SCC(=O)Nc2ccc(Cl)c(Cl)c2)nc(N2CCOCC2)n1 | 10.5%
80 | CN(Cc1ccco1)C(=O)c1ccc(CNS(=O)(=O)c2ccc3c(c2)C(C)(C)C(=O)N3C)cc1 | 2.46%
81 | COc1ccc(C2/C(=C(/O)c3ccccc3)C(=O)C(=O)N2CC(C)O)c(OC)c1 (stereo not shown) | -5.36%
82 | CC(C)=C1SC(N2CCN(c3cccc(C(F)(F)F)c3)CC2)=NC1=O | 4.27%
83 | Cn1cc(Cl)c(C(=O)Nc2cnn(Cc3ccc(F)cc3)c2)n1 | -3.91%
84 | COC(=O)c1c(NC(=O)C2(C)Cc3ccccc3C(=O)O2)sc2c1CCCC2 (stereo not shown) | 16.2%
85 | Cc1cc(NC(=O)/C=C\C(=O)O)c([N+](=O)[O-])cc1C | 13.1%
86 | CCCCC(=O)OCC(=O)c1ccc(OCC)cc1 | 6.76%
87 | COc1cc(NC(=O)c2ccnnc2)cc(C(=O)Nc2cccc(C(F)(F)F)c2)c1 | 5.61%
88 | CCOC(=O)C(C)CC(C)C(=O)N1CCOCCN(C(=O)C(C)CC(C)C(=O)OCC)CCOCC1 (stereo not shown) | -6.34%
